Repeats are few or missing, and single values can be far off.
Experiments:
CHO-K1 [1] = assay: micronucleus frequency (% of nucleated events); higher = more micronuclei (genotoxic)
CHO-K1 [2] = assay: relative survival (nuclei to bead ratio vs DMSO control) (% of vehicle control); higher = more surviving cells
Method: (§1)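 Flow-cytometric in vitro micronucleus assay (Litron MicroFlow) in CHO-K1 cells in 96-well plates, 19 concentrations (4.5-200 µM, n=1 per concentration). Without S9, cells were exposed for 24 h and sampled at 48 h. With Aroclor 1254-induced rat liver S9, cells were exposed for 3-4 h and sampled at 27-28 h. Read-outs are %MN and %hypodiploid nuclei relative to nucleated events, and relative survival as the nuclei-to-bead ratio versus the 1% DMSO vehicle control (x100).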

CHO-K1 [3] = assay: hypodiploid nuclei frequency (% of nucleated events); higher = more hypodiploid events (aneugenic)
Method: as §1
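Wherever hypodiploid nuclei frequency (% of nucleated events) is given: hypodiploid nuclei gated on a flow cytometer with 488 nm excitation after SYTOX Green staining, cultures at 37 °C, positive controls vinblastine without S9 and cyclophosphamide with S9.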
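Wherever micronucleus frequency (% of nucleated events) is given: cells lysed with nuclei stained by SYTOX Green, then micronucleus-gated events counted against nucleated events by flow cytometry with 488 nm excitation.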
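Wherever relative survival (nuclei to bead ratio vs DMSO control) is given: Lysed-cell nuclei stained with SYTOX Green and counted against counting beads by flow cytometry at 488 nm excitation, with vinblastine (no S9) and cyclophosphamide (plus S9) as positive controls.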

Cc1ccc([N+](=O)[O-])cc1C [1,2-Dimethyl-4-nitrobenzene]
Conditions	hypodiploid nuclei frequency, CHO-K1 [3] [%]	micronucleus frequency, CHO-K1 [1] [%]	relative survival, CHO-K1 [2]
concentration: 4.5 (µM), S9 metabolic activation: with S9, exposure time: 3-4 hours	0.34	1.4	104
concentration: 4.5 (µM), S9 metabolic activation: without S9, exposure time: 24 hours	0.72	2.52	116
concentration: 5.63 (µM), S9 metabolic activation: with S9, exposure time: 3-4 hours	0.24	0.98	121
concentration: 5.63 (µM), S9 metabolic activation: without S9, exposure time: 24 hours	0.5	2.52	103
concentration: 7.04 (µM), S9 metabolic activation: with S9, exposure time: 3-4 hours	0.22	1.08	135
concentration: 7.04 (µM), S9 metabolic activation: without S9, exposure time: 24 hours	0.64	2.52	105
concentration: 8.8 (µM), S9 metabolic activation: with S9, exposure time: 3-4 hours	0.28	1.6	111
concentration: 8.8 (µM), S9 metabolic activation: without S9, exposure time: 24 hours	0.78	2.64	107
concentration: 11 (µM), S9 metabolic activation: with S9, exposure time: 3-4 hours	0.16	0.86	107
concentration: 11 (µM), S9 metabolic activation: without S9, exposure time: 24 hours	0.7	1.92	131
concentration: 13.7 (µM), S9 metabolic activation: with S9, exposure time: 3-4 hours	0.1	1.12	150
concentration: 13.7 (µM), S9 metabolic activation: without S9, exposure time: 24 hours	0.88	2.22	103
concentration: 17.2 (µM), S9 metabolic activation: with S9, exposure time: 3-4 hours	0.32	1.5	137
concentration: 17.2 (µM), S9 metabolic activation: without S9, exposure time: 24 hours	0.82	2.12	119
concentration: 21.5 (µM), S9 metabolic activation: with S9, exposure time: 3-4 hours	0.14	1	124
concentration: 21.5 (µM), S9 metabolic activation: without S9, exposure time: 24 hours	0.58	2.02	109
concentration: 26.8 (µM), S9 metabolic activation: with S9, exposure time: 3-4 hours	0.16	1.26	99.9
concentration: 26.8 (µM), S9 metabolic activation: without S9, exposure time: 24 hours	0.66	2.18	119
concentration: 33.6 (µM), S9 metabolic activation: with S9, exposure time: 3-4 hours	0.34	2	128
concentration: 33.6 (µM), S9 metabolic activation: without S9, exposure time: 24 hours	0.86	1.68	105
concentration: 41.9 (µM), S9 metabolic activation: with S9, exposure time: 3-4 hours	0.26	1.42	106
concentration: 41.9 (µM), S9 metabolic activation: without S9, exposure time: 24 hours	0.88	2.74	101
concentration: 52.4 (µM), S9 metabolic activation: with S9, exposure time: 3-4 hours	0.24	1.56	117
concentration: 52.4 (µM), S9 metabolic activation: without S9, exposure time: 24 hours	0.94	1.94	101
concentration: 65.5 (µM), S9 metabolic activation: with S9, exposure time: 3-4 hours	0.38	1.4	114
concentration: 65.5 (µM), S9 metabolic activation: without S9, exposure time: 24 hours	0.9	3.6	101
concentration: 81.9 (µM), S9 metabolic activation: with S9, exposure time: 3-4 hours	0.44	1.72	120
concentration: 81.9 (µM), S9 metabolic activation: without S9, exposure time: 24 hours	1.06	2.66	106
concentration: 102 (µM), S9 metabolic activation: with S9, exposure time: 3-4 hours	0.26	1.28	112
concentration: 102 (µM), S9 metabolic activation: without S9, exposure time: 24 hours	1.32	2.2	85.4
concentration: 128 (µM), S9 metabolic activation: with S9, exposure time: 3-4 hours	0.26	1.58	110
concentration: 128 (µM), S9 metabolic activation: without S9, exposure time: 24 hours	1.14	2.84	105
concentration: 160 (µM), S9 metabolic activation: with S9, exposure time: 3-4 hours	0.3	1.36	106
concentration: 160 (µM), S9 metabolic activation: without S9, exposure time: 24 hours	1.94	2.42	105
concentration: 200 (µM), S9 metabolic activation: with S9, exposure time: 3-4 hours	0.36	1.9	118
concentration: 200 (µM), S9 metabolic activation: without S9, exposure time: 24 hours	1.92	3.16	83.5

c1ccc(NNc2ccccc2)cc1 [1,2-Diphenylhydrazine]
Conditions	hypodiploid nuclei frequency, CHO-K1 [3] [%]	micronucleus frequency, CHO-K1 [1] [%]	relative survival, CHO-K1 [2]
concentration: 4.5 (µM), S9 metabolic activation: with S9, exposure time: 3-4 hours	0.3	1.46	91.1
concentration: 4.5 (µM), S9 metabolic activation: without S9, exposure time: 24 hours	0.68	1.38	120
concentration: 5.63 (µM), S9 metabolic activation: with S9, exposure time: 3-4 hours	0.36	1.68	87.8
concentration: 5.63 (µM), S9 metabolic activation: without S9, exposure time: 24 hours	0.74	1.64	110
concentration: 7.04 (µM), S9 metabolic activation: with S9, exposure time: 3-4 hours	0.3	2.04	86.7
concentration: 7.04 (µM), S9 metabolic activation: without S9, exposure time: 24 hours	0.94	0.9	119
concentration: 8.8 (µM), S9 metabolic activation: with S9, exposure time: 3-4 hours	0.28	2.14	90
concentration: 8.8 (µM), S9 metabolic activation: without S9, exposure time: 24 hours	0.78	1.3	147
concentration: 11 (µM), S9 metabolic activation: with S9, exposure time: 3-4 hours	0.28	1.56	115
concentration: 11 (µM), S9 metabolic activation: without S9, exposure time: 24 hours	0.64	1.16	134
concentration: 13.7 (µM), S9 metabolic activation: with S9, exposure time: 3-4 hours	0.38	2.08	103
concentration: 13.7 (µM), S9 metabolic activation: without S9, exposure time: 24 hours	0.6	1.14	122
concentration: 17.2 (µM), S9 metabolic activation: with S9, exposure time: 3-4 hours	0.4	2.14	93.8
concentration: 17.2 (µM), S9 metabolic activation: without S9, exposure time: 24 hours	0.58	1.48	119
concentration: 21.5 (µM), S9 metabolic activation: with S9, exposure time: 3-4 hours	0.22	1.3	96
concentration: 21.5 (µM), S9 metabolic activation: without S9, exposure time: 24 hours	1.18	1.46	98.8
concentration: 26.8 (µM), S9 metabolic activation: with S9, exposure time: 3-4 hours	0.24	2.5	84.9
concentration: 26.8 (µM), S9 metabolic activation: without S9, exposure time: 24 hours	0.78	1.22	100
concentration: 33.6 (µM), S9 metabolic activation: with S9, exposure time: 3-4 hours	0.34	2.22	79.9
concentration: 33.6 (µM), S9 metabolic activation: without S9, exposure time: 24 hours	0.54	1.34	118
concentration: 41.9 (µM), S9 metabolic activation: with S9, exposure time: 3-4 hours	0.46	3	72.1
concentration: 41.9 (µM), S9 metabolic activation: without S9, exposure time: 24 hours	1	1.6	112
concentration: 52.4 (µM), S9 metabolic activation: with S9, exposure time: 3-4 hours	0.61	3.52	46.6
concentration: 52.4 (µM), S9 metabolic activation: without S9, exposure time: 24 hours	0.72	1.76	107
concentration: 65.5 (µM), S9 metabolic activation: with S9, exposure time: 3-4 hours	0.8	3.42	44.2
concentration: 65.5 (µM), S9 metabolic activation: without S9, exposure time: 24 hours	1.24	2.18	84.4
concentration: 81.9 (µM), S9 metabolic activation: with S9, exposure time: 3-4 hours	–	–	34.8
concentration: 81.9 (µM), S9 metabolic activation: without S9, exposure time: 24 hours	1.52	3.22	83.8
concentration: 102 (µM), S9 metabolic activation: with S9, exposure time: 3-4 hours	–	–	30.5
concentration: 102 (µM), S9 metabolic activation: without S9, exposure time: 24 hours	1.32	3.32	82.8
concentration: 128 (µM), S9 metabolic activation: with S9, exposure time: 3-4 hours	–	–	18.2
concentration: 128 (µM), S9 metabolic activation: without S9, exposure time: 24 hours	2.48	3.86	48
concentration: 160 (µM), S9 metabolic activation: with S9, exposure time: 3-4 hours	–	–	9.15
concentration: 160 (µM), S9 metabolic activation: without S9, exposure time: 24 hours	1.48	4.02	50.2
concentration: 200 (µM), S9 metabolic activation: with S9, exposure time: 3-4 hours	–	–	2.79
concentration: 200 (µM), S9 metabolic activation: without S9, exposure time: 24 hours	1.52	3.96	42.5

Nc1ccccc1N [1,2-Phenylenediamine]
Conditions	hypodiploid nuclei frequency, CHO-K1 [3] [%]	micronucleus frequency, CHO-K1 [1] [%]	relative survival, CHO-K1 [2]
concentration: 4.53 (µM), S9 metabolic activation: with S9, exposure time: 3-4 hours	0.34	0.74	96
concentration: 4.53 (µM), S9 metabolic activation: without S9, exposure time: 24 hours	0.44	1.48	70
concentration: 5.66 (µM), S9 metabolic activation: with S9, exposure time: 3-4 hours	0.26	1.04	88.9
concentration: 5.66 (µM), S9 metabolic activation: without S9, exposure time: 24 hours	0.64	1.48	89.4
concentration: 7.07 (µM), S9 metabolic activation: with S9, exposure time: 3-4 hours	0.44	0.92	80.5
concentration: 7.07 (µM), S9 metabolic activation: without S9, exposure time: 24 hours	0.86	2.18	105
concentration: 8.84 (µM), S9 metabolic activation: with S9, exposure time: 3-4 hours	0.26	0.78	85.2
concentration: 8.84 (µM), S9 metabolic activation: without S9, exposure time: 24 hours	0.66	2.08	92.9
concentration: 11.1 (µM), S9 metabolic activation: with S9, exposure time: 3-4 hours	0.26	1.02	99.8
concentration: 11.1 (µM), S9 metabolic activation: without S9, exposure time: 24 hours	0.52	1.34	90.8
concentration: 13.8 (µM), S9 metabolic activation: with S9, exposure time: 3-4 hours	0.22	1	88.2
concentration: 13.8 (µM), S9 metabolic activation: without S9, exposure time: 24 hours	0.46	1.52	97.4
concentration: 17.3 (µM), S9 metabolic activation: with S9, exposure time: 3-4 hours	0.28	1.22	103
concentration: 17.3 (µM), S9 metabolic activation: without S9, exposure time: 24 hours	0.66	1.56	85.9
concentration: 21.6 (µM), S9 metabolic activation: with S9, exposure time: 3-4 hours	0.22	0.56	90
concentration: 21.6 (µM), S9 metabolic activation: without S9, exposure time: 24 hours	0.5	1.76	87.1
concentration: 27 (µM), S9 metabolic activation: with S9, exposure time: 3-4 hours	0.28	1.14	109
concentration: 27 (µM), S9 metabolic activation: without S9, exposure time: 24 hours	0.66	1.3	93.2
concentration: 33.7 (µM), S9 metabolic activation: with S9, exposure time: 3-4 hours	0.36	1.08	117
concentration: 33.7 (µM), S9 metabolic activation: without S9, exposure time: 24 hours	0.52	1.7	99.8
concentration: 42.2 (µM), S9 metabolic activation: with S9, exposure time: 3-4 hours	0.18	0.96	95.5
concentration: 42.2 (µM), S9 metabolic activation: without S9, exposure time: 24 hours	0.98	1.44	64.8
concentration: 52.7 (µM), S9 metabolic activation: with S9, exposure time: 3-4 hours	0.32	1.08	85.6
concentration: 52.7 (µM), S9 metabolic activation: without S9, exposure time: 24 hours	1.14	1.72	78.5
concentration: 65.9 (µM), S9 metabolic activation: with S9, exposure time: 3-4 hours	0.22	1.14	79.4
concentration: 65.9 (µM), S9 metabolic activation: without S9, exposure time: 24 hours	1.5	1.98	67.5
concentration: 82.3 (µM), S9 metabolic activation: with S9, exposure time: 3-4 hours	0.22	1.6	96.8
concentration: 82.3 (µM), S9 metabolic activation: without S9, exposure time: 24 hours	2.46	2.3	49
concentration: 103 (µM), S9 metabolic activation: with S9, exposure time: 3-4 hours	0.32	1.56	79.5
concentration: 103 (µM), S9 metabolic activation: without S9, exposure time: 24 hours	–	–	33.8
concentration: 129 (µM), S9 metabolic activation: with S9, exposure time: 3-4 hours	0.4	2.24	71.8
concentration: 129 (µM), S9 metabolic activation: without S9, exposure time: 24 hours	–	–	25.3
concentration: 161 (µM), S9 metabolic activation: with S9, exposure time: 3-4 hours	0.34	2.52	77.3
concentration: 161 (µM), S9 metabolic activation: without S9, exposure time: 24 hours	–	–	5.8
concentration: 201 (µM), S9 metabolic activation: with S9, exposure time: 3-4 hours	0.26	1.9	75.6
concentration: 201 (µM), S9 metabolic activation: without S9, exposure time: 24 hours	–	–	0.48

From the supplement of paper PMC9151546
